In patent US20250019376A1, “CHROMANE AMIDINE MONOBACTAM ANTIBIOTICS” (priority 2021, published 2025):
At least one read-out could not be matched to a standard name with certainty.

How the values were obtained:
Settings in all cases: lowest concentration inhibiting 95% of growth (OD600); with BLi relebactam 4 μg/mL; 22 hours, 35±2° C.
[1] = test system: Acinetobacter baumannii expressing TEM-1, AmpC, and Oxa-24/40 (CL6188); format: cell-based
Description: (§1) The concentrations of compounds required to inhibit the growth of various strains of bacteria were determined in an assay that assessed bacterial growth by measuring optical density at 600 nm (OD600). The bacterial strains tested included the clinical strains Escherichia co/i expressing NDM-1 (CLB30016), Klebsiella pneumoniae expressing KPC-1 (CL6569), Acinetobacter baumannii expressing TEM-1, AmpC, and Oxa-24/40 (CL6188) and Pseudomonas aeruginosa expressing AmpC (CL5701). All compounds were tested in the presence of a f3 lactamase inhibitor (BLi, Relebactam) in 384-well microplates.
(§2) The clinical strains were stored as frozen single use stocks, thawed and diluted into 1.1× cation-adjusted Mueller-Hinton 11 broth to achieve approximately 2×10^5 CFU/mL. Test compounds were dissolved in DMSO and diluted 1:50 in the assay, resulting in a final concentration range of 100 μM to 0.098 μM. On the day of the assay, 1 μL of test compound was added to the plate followed by 4 μL of 50 μg/mL BLi in MOPS buffer and 45 μL of diluted bacteria. Plates were centrifuged at 1000 rpm for 30 seconds, shaken at approximately 800 rpm for 1 minute, and incubated at 35±2° C. for 22 hours. The concentration of BLi used in the assay was 4 μg/mL. At the end of the incubation, absorbance at 600 nm was determined using a spectrophotometer. Inhibition was quantitated by identifying the lowest concentration of test compound that was required to inhibit […] of the growth of the bacteria.

[2] = test system: Escherichia co/i expressing NDM-1 (CLB30016); test: Growth inhibitory concentration (OD600), E. coli CLB30016; format: cell-based, Escherichia coli
Description: as §1, §2

[3] = test system: Klebsiella pneumoniae expressing KPC-1 (CL6569); test: Growth inhibitory concentration (OD600), K. pneumoniae CL6569; format: cell-based
Description: as §1, §2

[4] = test system: Pseudomonas aeruginosa expressing AmpC (CL5701); test: Growth inhibitory concentration (OD600), P. aeruginosa CL5701; format: cell-based
Description: as §1, §2

In the case of `CC1(C)CNCCC1NC(=N)c1ccc2c(c1)CC[C@H]([C@](C)(O/N=C(\C(=O)N[C@@H]1C(=O)N(OS(=O)(=O)O)C1(C)C)c1csc(N)n1)C(=O)O)O2` (single isomer, unassigned) [Compound 49], the “AB_CL6188 MITC95” value [1] is reported as 6.25 µM, the “EC_CLB30016 MITC95” value [2] is reported as 6.25 µM and the “KP_CL6569 MITC95” value [3] is reported as 0.7813 µM. For the same compound, the “PA_CL5701 MITC95” value [4] was 1.563 µM.

With `CN[C@H]1C[C@H](NC(=N)c2ccc3c(c2)CC[C@H]([C@](C)(O/N=C(\C(=O)N[C@@H]2C(=O)N(OS(=O)(=O)O)C2(C)C)c2csc(N)n2)C(=O)O)O3)C1` [Compound 67, (S)-2-((((Z)-1-(2-aminothiazol-4-yl)-2-(((S)-2,2-dimethyl-4-oxo-1-(sulfooxy)azetidin-3-yl)amino)-2-oxoethylidene)amino)oxy)-2-((R)-6-(N-(trans-3-(methylamino)cyclobutyl)carbamimidoyl)chroman-2-yl)propanoic acid] the “AB_CL6188 MITC95” value [1] was 6.25 µM, the “EC_CLB30016 MITC95” value [2] was 6.25 µM and the “KP_CL6569 MITC95” value [3] was 0.3906 µM. For the same compound, the “PA_CL5701 MITC95” value [4] was 1.563 µM.

`CNC[C@H]1CC[C@@H](NC(=N)c2ccc3c(c2)CC[C@H]([C@](C)(O/N=C(\C(=O)N[C@@H]2C(=O)N(OS(=O)(=O)O)C2(C)C)c2csc(N)n2)C(=O)O)O3)CC1` [Compound 102, (S)-2-((((Z)-1-(2-aminothiazol-4-yl)-2-(((S)-2,2-dimethyl-4-oxo-1-(sulfooxy)azetidin-3-yl)amino)-2-oxoethylidene)amino)oxy)-2-((R)-6-(N-((1s,4S)-4-((methylamino)-methyl)cyclohexyl)carbamimidoyl)chroman-2-yl)propanoic acid] was tested, and the “AB_CL6188 MITC95” value [1] was 6.25 µM, the “EC_CLB30016 MITC95” value [2] was 6.25 µM and the “KP_CL6569 MITC95” value [3] was 0.7813 µM. The “PA_CL5701 MITC95” value [4] was 3.125 µM.

For `CC1(C)[C@@H](NC(=N)c2ccc3c(c2)CC[C@H]([C@](C)(O/N=C(\C(=O)N[C@@H]2C(=O)N(OS(=O)(=O)O)C2(C)C)c2csc(N)n2)C(=O)O)O3)C[C@@H]1N` [Compound 114, (S)-2-((R)-6-(N-((1S,3S)-3-amino-2,2-dimethylcyclobutyl)carbamimidoyl)-chroman-2-yl)-2-((((Z)-1-(2-aminothiazol-4-yl)-2-(((S)-2,2-dimethyl-4-oxo-1-(sulfooxy)-azetidin-3-yl)amino)-2-oxoethylidene)amino)oxy)propanoic acid], the “AB_CL6188 MITC95” value [1] was 6.25 µM, the “EC_CLB30016 MITC95” value [2] was 6.25 µM and the “KP_CL6569 MITC95” value [3] was 0.7813 µM. For the same compound, the “PA_CL5701 MITC95” value [4] was 1.563 µM.

`CC1(C)[C@H](NC(=O)/C(=N\O[C@](C)(C(=O)O)[C@H]2CCc3cc(C(=N)N[C@@H]4CN[C@H](CO)C4)ccc3O2)c2csc(N)n2)C(=O)N1OS(=O)(=O)O` [Compound 137, (S)-2-((((Z)-1-(2-aminothiazol-4-yl)-2-(((S)-2,2-dimethyl-4-oxo-1-(sulfooxy)azetidin-3-yl)amino)-2-oxoethylidene)amino)oxy)-2-((R)-6-(N-((3S,5S)-5-(hydroxymethyl)pyrrolidin-3-yl)carbamimidoyl)chroman-2-yl)propanoic acid] was tested, and the “AB_CL6188 MITC95” value [1] was 12.5 µM, the “EC_CLB30016 MITC95” value [2] was 3.125 µM and the “KP_CL6569 MITC95” value [3] was 0.7813 µM. The “PA_CL5701 MITC95” value [4] was 1.563 µM.

With `CC1(C)[C@H](NC(=O)/C(=N\O[C@](C)(C(=O)O)[C@H]2CCc3cc(C(=N)N[C@@H]4CC[C@H](N)[C@H]5C[C@H]54)ccc3O2)c2csc(N)n2)C(=O)N1OS(=O)(=O)O` (single isomer, unassigned) [Compound 25] the “AB_CL6188 MITC95” value [1] was 6.25 µM, the “EC_CLB30016 MITC95” value [2] was 3.125 µM and the “KP_CL6569 MITC95” value [3] was 0.3906 µM. For the same compound, the “PA_CL5701 MITC95” value [4] was 0.7813 µM.

`CC1(C)[C@H](NC(=O)/C(=N\O[C@](C)(C(=O)O)[C@H]2CCc3cc(C(=N)N[C@]4(C)CC[C@@H](CN)CC4)ccc3O2)c2csc(N)n2)C(=O)N1OS(=O)(=O)O` [Compound 131, (S)-2-((R)-6-(N-((1r,4R)-4-(aminomethyl)-1-methylcyclohexyl)carbamimidoyl)chroman-2-yl)-2-((((Z)-1-(2-aminothiazol-4-yl)-2-(((S)-2,2-dimethyl-4-oxo-1-(sulfooxy)azetidin-3-yl)amino)-2-oxoethylidene)amino)oxy)propanoic acid] was tested, and the “AB_CL6188 MITC95” value [1] was 6.25 µM, the “EC_CLB30016 MITC95” value [2] was 6.25 µM and the “KP_CL6569 MITC95” value [3] was 0.3906 µM. For the same compound, the “PA_CL5701 MITC95” value [4] was 1.563 µM.

`CC1(C)[C@H](NC(=O)/C(=N\O[C@](C)(C(=O)O)[C@H]2CCc3cc(C(=N)NC4CC5(CCCNC5)C4)ccc3O2)c2csc(N)n2)C(=O)N1OS(=O)(=O)O` (single isomer, unassigned) [Compound 20] was tested, and the “AB_CL6188 MITC95” value [1] was 6.25 µM, the “EC_CLB30016 MITC95” value [2] was 6.25 µM and the “KP_CL6569 MITC95” value [3] was 0.3906 µM. For the same compound, the “PA_CL5701 MITC95” value [4] was 3.125 µM.

In the case of `CO[C@]1(CN)C[C@H](NC(=N)c2ccc3c(c2)CC[C@H]([C@](C)(O/N=C(\C(=O)N[C@@H]2C(=O)N(OS(=O)(=O)O)C2(C)C)c2csc(N)n2)C(=O)O)O3)C1` [Compound 83, (S)-2-((R)-6-(N-((1s,3S)-3-(aminomethyl)-3-methoxycyclobutyl)carbamimidoyl)chroman-2-yl)-2-((((Z)-1-(2-aminothiazol-4-yl)-2-(((S)-2,2-dimethyl-4-oxo-1-(sulfooxy)azetidin-3-yl)amino)-2-oxoethylidene)amino)oxy)propanoic acid], the “AB_CL6188 MITC95” value [1] is reported as 6.25 µM, the “EC_CLB30016 MITC95” value [2] is reported as 3.125 µM and the “KP_CL6569 MITC95” value [3] is reported as 0.3906 µM. The “PA_CL5701 MITC95” value [4] was 1.563 µM.

For `CC1(C)[C@H](NC(=O)/C(=N\O[C@](C)(C(=O)O)[C@H]2CCc3cc(C(=N)N[C@H]4C[C@]5(CCNC5)C4)ccc3O2)c2csc(N)n2)C(=O)N1OS(=O)(=O)O` [Compound 44, (S)-2-((R)-6-(N-((2r,4S)-6-azaspiro[3.4]octan-2-yl)carbamimidoyl)chroman-2-yl)-2-((((Z)-1-(2-aminothiazol-4-yl)-2-(((S)-2,2-dimethyl-4-oxo-1-(sulfooxy)azetidin-3-yl)amino)-2-oxoethylidene)amino)oxy)propanoic acid], the “PA_CL5701 MITC95” value [4] was 1.563 µM.

For `CC1(C)[C@H](NC(=O)/C(=N\O[C@](C)(C(=O)O)[C@H]2CCc3cc(C(=N)NC4CC5(CC(N)C5)C4)ccc3O2)c2csc(N)n2)C(=O)N1OS(=O)(=O)O` (stereo partly drawn) [Compound 61, (S)-2-((R)-6-(N-((2R,4r,6R)-6-aminospiro[3.3]heptan-2-yl)carbamimidoyl)chroman-2-yl)-2-((((Z)-1-(2-aminothiazol-4-yl)-2-(((S)-2,2-dimethyl-4-oxo-1-(sulfooxy)azetidin-3-yl)amino)-2-oxoethylidene)amino)oxy)propanoic acid], the “EC_CLB30016 MITC95” value [2] was 3.125 µM.

With `CC1(C)[C@H](NC(=O)/C(=N\O[C@](C)(C(=O)O)[C@H]2CCc3cc(C(=N)N[C@H]4CC[C@@H](N)CC4)ccc3O2)c2csc(N)n2)C(=O)N1OS(=O)(=O)O` [Compound 6, (S)-2-((R)-6-(N-((1s,4S)-4-aminocyclohexyl)carbamimidoyl)chroman-2-yl)-2-((((Z)-1-(2-aminothiazol-4-yl)-2-(((S)-2,2-dimethyl-4-oxo-1-(sulfooxy)azetidin-3-yl)-amino)-2-oxo-ethylidene)amino)oxy)propanoic acid] the “EC_CLB30016 MITC95” value [2] was 6.25 µM, the “KP_CL6569 MITC95” value [3] was 0.7813 µM and the “PA_CL5701 MITC95” value [4] was 2.344 µM.

With `CC1(C)[C@H](NC(=O)/C(=N\O[C@](C)(C(=O)O)[C@H]2CCc3cc(C(=N)N[C@H]4C[C@](N)(CC(O)CO)C4)ccc3O2)c2csc(N)n2)C(=O)N1OS(=O)(=O)O` (stereo partly drawn) [Compound 96, (S)-2-((R)-6-(N-((1R,3S)-3-amino-3-((S)-2,3-dihydroxypropyl)cyclobutyl)-carbamimidoyl)chroman-2-yl)-2-((((Z)-1-(2-aminothiazol-4-yl)-2-(((S)-2,2-dimethyl-4-oxo-1-(sulfooxy)azetidin-3-yl)amino)-2-oxoethylidene)amino)oxy)propanoic acid] the “KP_CL6569 MITC95” value [3] was 0.3906 µM and the “PA_CL5701 MITC95” value [4] was 1.563 µM.

With `CC1(C)[C@H](NC(=O)/C(=N\O[C@](C)(C(=O)O)[C@H]2CCc3cc(C(=N)N[C@H]4C[C@](N)(CC(O)CO)C4)ccc3O2)c2csc(N)n2)C(=O)N1OS(=O)(=O)O` (stereo partly drawn) [Compound 97, (S)-2-((R)-6-(N-((1S,3S)-3-amino-3-((R)-2,3-dihydroxypropyl)cyclobutyl)carbamimidoyl)chroman-2-yl)-2-((((Z)-1-(2-aminothiazol-4-yl)-2-(((S)-2,2-dimethyl-4-oxo-1-(sulfooxy)azetidin-3-yl)amino)-2-oxoethylidene)amino)oxy)propanoic acid] the “KP_CL6569 MITC95” value [3] was 0.7813 µM and the “PA_CL5701 MITC95” value [4] was 1.563 µM.

With `CC1(C)[C@H](NC(=O)/C(=N\O[C@](C)(C(=O)O)[C@H]2CCc3cc(C(=N)N[C@H]4C[C@@]5(CCNC5)C4)ccc3O2)c2csc(N)n2)C(=O)N1OS(=O)(=O)O` [Compound 43, (S)-2-((R)-6-(N-((2s,4R)-6-azaspiro[3.4]octan-2-yl)carbamimidoyl)chroman-2-yl)-2-((((Z)-1-(2-aminothiazol-4-yl)-2-(((S)-2,2-dimethyl-4-oxo-1-(sulfooxy)azetidin-3-yl)amino)-2-oxoethylidene)amino)oxy)propanoic acid] the “KP_CL6569 MITC95” value [3] was 0.3906 µM and the “PA_CL5701 MITC95” value [4] was 1.563 µM.
